{
  "source": "the supplement of paper PMC4723716",
  "note": "Whole data set: some 3,600 compounds, median “viability index relative to DMSO control” near 0.81, cut for the lowest 2% near 0.13. This is one part of the list.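 Also: 384-well serum-free SaLSSA: MitoTracker Red CMXRos staining with saponin lysis, high-content imaging, treated-well particle count divided by plate-mean count of DMSO wells.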",
  "data": [
    {"system": "Plasmodium falciparum NF54 stage V gametocytes", "experiment": "viability index relative to DMSO control (fraction); higher = less gametocyte killing", "conditions": "1.25 µM, incubation time: 72 h", "values": [
      {"smiles": "Cc1cc(C)c2c(c1)OCN(Cc1ccccc1Cl)C2", "viability index": 0.51},
      {"smiles": "Cc1ccc(N=C2NC(=O)C(=Cc3ccc(N(C)C)cc3)S2)cc1", "viability index": 0.61},
      {"smiles": "O=c1c(NCc2ccco2)nc2cc(Cl)ccc2n1CCNc1ncc(C(F)(F)F)cc1Cl", "viability index": 1.07},
      {"smiles": "Cc1cc(N)c2ccccc2[n+]1CCCCCCCCCC[n+]1c(C)cc(N)c2ccccc21", "viability index": 0.606},
      {"smiles": "CC[n+]1cc(C)ccc1C=Cc1ccc(N(C)C)cc1", "viability index": 1.09},
      {"smiles": "Cn1c(=O)c2c(ncn2CC(O)CN2CCCC2)n(C)c1=O", "note": "(stereo not drawn)", "viability index": 0.867},
      {"smiles": "Cc1ccccc1C(=O)N1CCC(n2nccc2NC(=O)CCOc2ccccc2)CC1", "viability index": 0.827},
      {"smiles": "CCN(CC)CCCNC(=S)N(Cc1cc2ccc(OC)cc2[nH]c1=O)C1CCCCC1", "viability index": 0.968},
      {"smiles": "OC1(c2ccc(Br)cc2)CCN(C2CCN(CCc3ccccc3)CC2)CC1", "viability index": 1.04},
      {"smiles": "CCOc1cc(C(=O)Nc2ccc(-c3nc4ccccc4[nH]3)cc2)cc(OCC)c1OCC", "viability index": 0.538},
      {"smiles": "O=C1C(Nc2ccccc2)=C(N2CCCCC2)C(=O)c2ccccc21", "viability index": 0.63},
      {"smiles": "Cc1ccc(OCCCCCCNCCO)c(C)c1", "viability index": 0.951},
      {"smiles": "COc1ccc(-c2cc(C(=O)Nc3cc(Oc4ccc(NC(C)=O)cc4)cc([N+](=O)[O-])c3)c3ccccc3n2)cc1", "viability index": 0.664},
      {"smiles": "COc1ccc(NC2=C(c3ccc(C(F)(F)F)cc3)C(=O)c3ccccc32)cc1", "viability index": 1.06},
      {"smiles": "CN(C)CCNC(=O)c1cc2c(-c3ccc(Cl)cc3)nn(C)c2s1", "viability index": 0.821},
      {"smiles": "O=C(Nc1cc(C(F)(F)F)ccc1N1CCOCC1)C(Cl)(Cl)Cl", "viability index": 1.31},
      {"smiles": "CCOc1ccc(N2C(=O)C3C4CC(C(Br)C4Br)C3C2=O)cc1", "note": "(stereo not drawn)", "viability index": 0.889},
      {"smiles": "Cc1oc(C)c2c(=O)cc(-c3cccs3)cc(O)c12", "viability index": 0.619},
      {"smiles": "Cc1cc(C)n(N=Cc2ccc(Cl)cc2)c(=O)c1C#N", "viability index": 0.745},
      {"smiles": "CC(C)OC(=O)CSc1nnc(CNc2nc(-c3ccccc3)cs2)n1C", "viability index": 0.971},
      {"smiles": "O=C(Nc1ccc(F)cc1)N1CCN(c2ccc3nnc(-c4ccccc4)n3n2)CC1", "viability index": 0.801},
      {"smiles": "CCOC(=O)C1=C(C)NC(=Cc2cc(C)n(-c3ccc(C)cc3)c2C)C1=O", "viability index": 0.421},
      {"smiles": "O=[N+]([O-])c1ccc(N2CCCN(C(=S)Nc3ccc(F)cc3Br)CC2)nc1", "viability index": 0.261},
      {"smiles": "COc1cccc(-c2cc(N=C(NCc3ccco3)SC)[nH]n2)c1", "viability index": 1.13},
      {"smiles": "O=C(Nc1ccccc1Cl)C1CCCN1C(=O)OCc1ccccc1", "note": "(stereo not drawn)", "viability index": 0.846},
      {"smiles": "N#Cc1ccc(N2CCN(C(=O)c3ccc(F)cc3Cl)CC2)cc1", "viability index": 0.851},
      {"smiles": "O=C1CN(C(=O)CCC2CCCC2)C(c2ccc(F)cc2)c2cc(Cl)ccc2N1", "note": "(stereo not drawn)", "viability index": 0.751},
      {"smiles": "CCOC(=O)c1cnc2c(ccc3ccccc32)c1O", "viability index": 0.382},
      {"smiles": "C=CCCC(=O)N1CCC(C(=O)Nc2ccc(-c3nc4ccccc4o3)cc2)CC1", "viability index": 0.846},
      {"smiles": "Cc1cccnc1NC(=O)CCCC(=O)O", "viability index": 0.845},
      {"smiles": "CCOc1ccc(C2C(C(=O)OC)=CNC=C2C(=O)OC)cc1Cl", "viability index": 1.01},
      {"smiles": "Cc1nc(N2CCN(c3ccccn3)CC2)c2c(C)c(C(=O)Nc3c(F)cccc3F)sc2n1", "viability index": 1.17},
      {"smiles": "Nc1ccc2[nH]c(C=Cc3ccc(Cl)cc3)nc2c1", "viability index": 0.933},
      {"smiles": "CCCOC(=O)C1=C(C)NC2=C(C(=O)CC(c3ccc(OC)c(OC)c3)C2)C1c1ccccc1Cl", "note": "(stereo not drawn)", "viability index": 0.317},
      {"smiles": "Clc1ccc(-c2c[n+](CCc3ccccc3)c3n2CCC3)cc1", "viability index": 0.785},
      {"smiles": "CC(=O)N(C)C1=C(N2CCCC2)C(=O)c2ccccc2C1=O", "viability index": 0.865},
      {"smiles": "O=C(C1=C(O)C(=O)N(CCCn2ccnc2)C1c1ccccc1[N+](=O)[O-])c1ccccc1", "note": "(stereo not drawn)", "viability index": 0.638},
      {"smiles": "Cc1cccc(-c2nc3cc(NC(=O)c4ccc([N+](=O)[O-])o4)ccc3o2)c1", "viability index": 0.0679},
      {"smiles": "CN1C(=Cc2cccc[n+]2C)C=Cc2ccccc21", "viability index": 0.902},
      {"smiles": "CCN(Cc1ccccc1)Cc1c(O)ccc2oc(C)c(C(=O)Nc3ccc(C)cc3C)c12", "viability index": 1.13},
      {"smiles": "COc1ccc(N2CCN(C(CNC(=O)CC(C)C)c3ccco3)CC2)cc1", "note": "(stereo not drawn)", "viability index": 0.612},
      {"smiles": "COc1ccc(-n2c(COc3cccc4ccccc34)nnc2SC)cc1", "viability index": 0.724},
      {"smiles": "COc1ccccc1-n1c(=O)c2c3c(sc2n2c(C)nnc12)CCC3", "viability index": 0.865},
      {"smiles": "COc1ccc(OC)c(C=NNC(=O)Cc2cc(O)[nH]n2)c1", "viability index": 0.834},
      {"smiles": "c1ccc(CSc2nnc3c(n2)[nH]c2ccccc23)cc1", "viability index": 0.865},
      {"smiles": "c1cc(-c2cccc3cccnc23)nc(N2CCN(CCN3CCCC3)CC2)c1", "viability index": 0.899},
      {"smiles": "Fc1ccc(-c2c[n+](Cc3ccc(Cl)cc3)c3n2CCC3)cc1", "viability index": 0.933},
      {"smiles": "COc1ccccc1NC1=CC(=NS(=O)(=O)c2ccc(F)cc2)c2ccccc2C1=O", "viability index": 0.189},
      {"smiles": "CC(=O)c1c(C)oc2ccc(NS(=O)(=O)c3cccc(C(=O)O)c3)cc12", "viability index": 0.985},
      {"smiles": "CC(C=NNC(N)=S)=NNC(N)=S", "viability index": 0.131},
      {"smiles": "Cc1ccc(C2(C)CC(C)(C)N(C(=O)Cc3ccccc3)c3ccc(C(c4ccccc4)(c4ccccc4)c4ccccc4)cc32)cc1", "note": "(stereo not drawn)", "viability index": 0.853},
      {"smiles": "N=C1NC(=O)C(=CC=Cc2ccc([N+](=O)[O-])o2)S1", "viability index": 0.0408},
      {"smiles": "CCOc1cc(C2C(C(=O)OC)=CNC=C2C(=O)OC)cc(Br)c1OCC", "viability index": 0.629},
      {"smiles": "Cc1ccc2nc(Nc3ncc4c(n3)CC(C)(C)CC4=O)nc(C)c2c1", "viability index": 0.992},
      {"smiles": "C[n+]1c(C=Cc2ccc(F)cc2)ccc2ccccc21", "viability index": 0.733},
      {"smiles": "N#Cc1c2c(c(N3CCN(Cc4ccccc4)CC3)n3c1nc1ccccc13)CCC2", "viability index": 1.03},
      {"smiles": "CCCCc1ccc(NC(C)=O)cc1", "viability index": 0.497},
      {"smiles": "CCc1ccc(C(=O)C[n+]2cc(-c3ccc(OC)cc3)n3c2CCC3)cc1", "viability index": 0.892},
      {"smiles": "CCOC(=O)N1CCN(C(=O)c2ccc(N3CC4CC(C3)c3cccc(=O)n3C4)c(NS(=O)(=O)c3ccc4c(c3)OCCO4)c2)CC1", "note": "(stereo not drawn)", "viability index": 0.959},
      {"smiles": "CC1=C(C(=O)OC2CCCC2)C(c2ccc(Cl)cc2)C2=C(CC(c3ccc(Cl)cc3)CC2=O)N1", "note": "(stereo not drawn)", "viability index": 0.675},
      {"smiles": "COc1ccc2cc3[n+](cc2c1OC)CCc1cc2c(cc1-3)OCO2", "viability index": 0.822},
      {"smiles": "COC(=O)c1cccc(NC(=O)C(=Cc2cccc([N+](=O)[O-])c2)NC(=O)c2ccccc2OC)c1", "viability index": 0.936},
      {"smiles": "CCOC(=O)C1=C(C)NC2=C(C(=O)CC(c3ccc(OC)c(OC)c3)C2)C1c1cccc(Cl)c1", "note": "(stereo not drawn)", "viability index": 0.71},
      {"smiles": "COc1ccc(CN2CCOc3ccc(C(C)(O)CN(C)C)cc3C2)cc1C", "note": "(stereo not drawn)", "viability index": 1},
      {"smiles": "O=C1C=C(Nc2cccc(C(F)(F)F)c2)C(=O)c2ccccc21", "viability index": 0.0673},
      {"smiles": "CCC(=Cc1sc2ccc3ccccc3c2[n+]1C)C=C1Sc2ccc3ccccc3c2N1C", "viability index": 0.681},
      {"smiles": "Fc1ccc(Nc2nc(NCc3ccco3)c3ccccc3n2)cc1", "viability index": 0.739},
      {"smiles": "CCOC(=O)c1c(NC(=O)C(C)Sc2ncnc3c2oc2ccccc23)sc2c1CCC2", "note": "(stereo not drawn)", "viability index": 0.678},
      {"smiles": "COc1ccc(-c2c[n+](CC(=O)c3cccc(OC)c3)c3n2CCC3)cc1", "viability index": 0.74},
      {"smiles": "N=c1c2c(n(CCc3ccccc3)c3c1CCC3)CCCC2", "viability index": 0.785},
      {"smiles": "Cc1ccc(C(=O)c2c(C)oc3ccc(O)cc23)cc1", "viability index": 0.849},
      {"smiles": "CCN(CC)CCCNC(=S)N(CCN(C)C)Cc1cc2cc(C)cc(C)c2[nH]c1=O", "viability index": 0.763},
      {"smiles": "CCc1ccc(Nc2cc(C)nc3nc(C)nn23)cc1", "viability index": 1.18},
      {"smiles": "COC(=O)c1ccc(C2C3=C(O)CC(c4cccs4)CC3=Nc3ccccc3N2C(=O)c2ccccc2)cc1", "note": "(stereo not drawn)", "viability index": 0.571},
      {"smiles": "CCOc1ccc(Br)cc1C=C1SC(=Nc2ccccc2CC)N(c2ccccc2CC)C1=O", "viability index": 0.712},
      {"smiles": "COc1cccc(C(Nc2cc(C)ccn2)c2ccc3cccnc3c2O)c1", "note": "(stereo not drawn)", "viability index": 0.88},
      {"smiles": "CC(=O)Nc1ccc(C(=O)N2CCC(Oc3cccc(CN(C)Cc4cccc5ccccc45)c3)CC2)cc1", "viability index": 1.12},
      {"smiles": "Cc1ccc(CC(=O)Nc2ccc(I)cc2)cc1", "viability index": 1.41},
      {"smiles": "O=C(C1CCC1)N1CCN(c2ccccn2)CC1", "viability index": 0.891},
      {"smiles": "COC(=O)C1=C(C)NC2=C(C(=O)CC(c3ccc(OC)c(OC)c3)C2)C1c1ccc([N+](=O)[O-])cc1", "note": "(stereo not drawn)", "viability index": 0.56},
      {"smiles": "Cc1ccccc1N1C(=O)C2C3c4ccccc4C(C(=O)O)(c4ccccc43)C2C1=O", "note": "(stereo not drawn)", "viability index": 0.616},
      {"smiles": "NCCNc1cc(-c2ccccc2)nc2ccccc12", "viability index": 1.12},
      {"smiles": "O=C1NC(=Nc2ccccc2)C(=Cc2ccc(O)cc2)S1", "viability index": 0.455},
      {"smiles": "Nc1ccc(C(=O)Nc2ccc(-c3nc4ccccc4o3)cc2)cc1", "viability index": 0.703},
      {"smiles": "C=CCC1C=C(Cc2ccccc2)CC(CC=C)N1", "note": "(stereo not drawn)", "viability index": 1.02},
      {"smiles": "Oc1ccc(Br)cc1CN1CCN(c2ccccn2)CC1", "viability index": 0.908},
      {"smiles": "CCOC(=O)C1(CC2CCCCO2)CCN(C(=O)Nc2cccc(SC)c2)CC1", "note": "(stereo not drawn)", "viability index": 1.07},
      {"smiles": "Cc1cc(N2CCC(C)CC2)nc(-n2nc(C)cc2C)n1", "viability index": 0},
      {"smiles": "Cc1ccc(S(=O)(=O)N2CCN(C(=O)c3ccccc3)C2c2ccccc2)cc1", "note": "(stereo not drawn)", "viability index": 0.875},
      {"smiles": "CCOC(=O)c1[nH]c2ccc(OC)cc2c1N=NN(C)C", "viability index": 0.627},
      {"smiles": "CCc1c(C#N)c(N)nc2sc(C(=O)c3ccc(Br)cc3)c(N)c12", "viability index": 0.661},
      {"smiles": "CCOc1ccc(CCNC(=O)Nc2ccc(F)cc2)cc1OCC", "viability index": 0.726},
      {"smiles": "CC(=O)c1ccc(NC(=O)CN(C)S(=O)(=O)c2ccc3[nH]c4c(c3c2)CCCC4)cc1", "viability index": 0.867}
    ]}
  ]
}
